The values below come from paper PMC5515408.

This is one part of the list. At the low end of the ranking the order means little.

The subject of this test is MYC (p64) + MAX (p21), in MYC:MAX. Put plainly: protein-binding microarray (anti-MAX antibody). The conditions noted are these: PBM: 15 mM Tris-HCl pH 7.5, 100 mM KCl, 0.075% NP40, 7.5 mM beta-mercaptoethanol, 375 ng/ul BSA, 8 ng/ul poly(dA-dT):(dA-dT), 550 ng complex, 60 min, room …; high values mean tight binding; double strand, one strand shown; sequences stand for … in CCGGC…TTAATAGCTAAGATTACTATATCGACG
On to TGAGATAGGGTA, for which the binding signal (log2 normalized fluorescence) was -0.108. Regarding TGACGTTTTGTA, the binding signal (log2 normalized fluorescence) was -0.0354.

For the sequence TGAATGACTGTA, the binding signal (log2 normalized fluorescence) worked out at 0.156. In the case of TGATCCAACGTA, the binding signal (log2 normalized fluorescence) was determined as 0.112. In the case of TGTCATGTGGTA, the binding signal (log2 normalized fluorescence) turned out to be 0.631. With CCGCACGTGGTA, the binding signal (log2 normalized fluorescence) was found to be 0.749.

Regarding TAGAACGTGGTA, the binding signal (log2 normalized fluorescence) was found to be 0.512. For TGACACTTGGTA, the binding signal (log2 normalized fluorescence) amounted to 0.134. As for TGAGTGCTGGTA, the binding signal (log2 normalized fluorescence) is 0.0362. As for TTACCCGTGGTA, the binding signal (log2 normalized fluorescence) is 0.282. Turning to TGACTAAGGGTA, the binding signal (log2 normalized fluorescence) was -0.0349. In the case of TGAACACCCGTA, the binding signal (log2 normalized fluorescence) amounted to 0.244. The value for TGATGGCCTGTA was 0.18; that for TGACGCCATGTA was 0.354. Regarding TGACATTTTGTA, the binding signal (log2 normalized fluorescence) was determined as 0.00501. With TGAGATACAGTA, the binding signal (log2 normalized fluorescence) was -0.0352. TGAGTCTATGTA: the binding signal (log2 normalized fluorescence) was -0.0268. Turning to TGACGTTCTGTA, the binding signal (log2 normalized fluorescence) was determined as 0.244. Consider TGATGCATTGTA, for which the binding signal (log2 normalized fluorescence) worked out at 0.224.

For the sequence TGATTTTGCGTA, the binding signal (log2 normalized fluorescence) was -0.135. Take TGACGCTCAGTA: the binding signal (log2 normalized fluorescence) was determined as 0.147. The value for TGACAACCCGTA was 0.233; that for TGACGCAACGTA was 0.299; that for TGATAGCACGTA was 0.212. The same measure for TGACTGCACGTA: 0.216; for TGATACTGGGTA: -0.221; for TGATTCGCGGTA: -0.0184.

Regarding TGACCTCCCGTA, the binding signal (log2 normalized fluorescence) came to 0.167.

For the sequence TGATTCCGAGTA, the binding signal (log2 normalized fluorescence) is -0.0488.

With TGATTAATAGTA, the binding signal (log2 normalized fluorescence) is -0.0543. For TGAAATCGAGTA, the binding signal (log2 normalized fluorescence) was -0.0164. On to TGAAATTGAGTA, for which the binding signal (log2 normalized fluorescence) was -0.078. On to TGACTATAAGTA, for which the binding signal (log2 normalized fluorescence) was -0.0234. The same measure for TGAAATCTCGTA: -0.0492. Consider TGAAGAGTGGTA, for which the binding signal (log2 normalized fluorescence) amounted to 0.152. For the sequence TGACACGTACGA, the binding signal (log2 normalized fluorescence) was 0.276. Regarding TGATCTGAAGTA, the binding signal (log2 normalized fluorescence) turned out to be 0.0504. As for CGACCCGTGGTT, the binding signal (log2 normalized fluorescence) turned out to be 0.28. For the sequence TGAATATGAGTA, the binding signal (log2 normalized fluorescence) was -0.114. For the sequence TGATCAAGGGTA, the binding signal (log2 normalized fluorescence) worked out at 0.0432. Turning to TGAAAAGCAGTA, the binding signal (log2 normalized fluorescence) was -0.0179. On to TGAAATCTAGTA, for which the binding signal (log2 normalized fluorescence) is -0.187. The same measure for TGATCGCCGGTA: -0.0432; for TGACGTCTAGTA: -0.00371. On to TGACACGCTGTA, for which the binding signal (log2 normalized fluorescence) turned out to be 0.477. For the sequence CGTTACCCTGTG, the binding signal (log2 normalized fluorescence) stood at 0.0441.

Consider TGATGACTAGTA, for which the binding signal (log2 normalized fluorescence) was 0.0752. For the sequence TTACAGGTGGTA, the binding signal (log2 normalized fluorescence) was found to be 0.554. The value for TGAGGGGTAGTA was 0.257; that for CGACTCGGGGTT was 0.16; that for TGAAGAGCCGTA was -0.0183. For the sequence TGACGCGTAGTA, the binding signal (log2 normalized fluorescence) is 0.326. The same measure for TGACTCCTCGTA: 0.0901. TGAGAATTTGTA: the binding signal (log2 normalized fluorescence) was -0.254.

TGACCTAGTGTA: the binding signal (log2 normalized fluorescence) is 0.257.

As for TGAAAAGCGGTA, the binding signal (log2 normalized fluorescence) stood at 0.0993. With TGATAGGCAGTA, the binding signal (log2 normalized fluorescence) was -0.124. The same measure for TAATATGGGGTT: 0.347; for TGACAATCAGTA: 0.0985. In the case of TGAAAGAGTGTA, the binding signal (log2 normalized fluorescence) was found to be 0.0309. With TGATTCACTGTA, the binding signal (log2 normalized fluorescence) turned out to be 0.149. In the case of TGAGACACTGTA, the binding signal (log2 normalized fluorescence) was found to be 0.191. Regarding TGAGAATAAGTA, the binding signal (log2 normalized fluorescence) is -0.282. On to TGACTGTGCGTA, for which the binding signal (log2 normalized fluorescence) was determined as 0.309.

TGATAATAGGTA: the binding signal (log2 normalized fluorescence) is -0.135.

With TGAAAGGTAGTA, the binding signal (log2 normalized fluorescence) was -0.0853. With TGACCGGTAGTA, the binding signal (log2 normalized fluorescence) was -0.0532. For the sequence TGAAGATTAGTA, the binding signal (log2 normalized fluorescence) was -0.0685.

For the sequence TGATGCCCAGTA, the binding signal (log2 normalized fluorescence) is 0.07. As for TGAACATAGGTA, the binding signal (log2 normalized fluorescence) worked out at 0.161.

For TGACTGGCGGTA, the binding signal (log2 normalized fluorescence) is -0.0112.

As for TGATAGTCTGTA, the binding signal (log2 normalized fluorescence) was 0.068. On to TGACACGTTGTC, for which the binding signal (log2 normalized fluorescence) was found to be 0.619. TGAACGAGGGTA: the binding signal (log2 normalized fluorescence) amounted to 0.254.

Regarding TGATCTGGCGTA, the binding signal (log2 normalized fluorescence) was -0.126. The same measure for TGACACGTGTAC: 0.823; for TGACGGTACGTA: 0.0942. As for TGATTTAGTGTA, the binding signal (log2 normalized fluorescence) was determined as 0.00668. As for TGACGTGAGGTA, the binding signal (log2 normalized fluorescence) was 0.455. Regarding AATTCGGAACAG, the binding signal (log2 normalized fluorescence) amounted to 0.132. As for TGAACTATAGTA, the binding signal (log2 normalized fluorescence) came to 0.0698. For the sequence TGAAGGAATGTA, the binding signal (log2 normalized fluorescence) amounted to 0.0682. Turning to TGAGTCTTGGTA, the binding signal (log2 normalized fluorescence) was -0.116. With TGACAAGAGGTA, the binding signal (log2 normalized fluorescence) amounted to 0.126. In the case of TGAAGAGTCGTA, the binding signal (log2 normalized fluorescence) is -0.115. For TGAGTCTCCGTA, the binding signal (log2 normalized fluorescence) was -0.254. Take TGAGGATCTGTA: the binding signal (log2 normalized fluorescence) was -0.115. TGAAGATCTGTA: the binding signal (log2 normalized fluorescence) is -0.0224. As for TGATTACAGGTA, the binding signal (log2 normalized fluorescence) came out at 0.00407. The same measure for TGAGTAACGGTA: -0.0861.

Consider TGATGACCTGTA, for which the binding signal (log2 normalized fluorescence) was found to be 0.232.

Consider TGAGAGCAGGTA, for which the binding signal (log2 normalized fluorescence) was determined as 0.0373. The same measure for TGAACCCAAGTA: 0.296. TGAGGGTAAGTA: the binding signal (log2 normalized fluorescence) came to 0.0547.

With GTCCACGTGGTA, the binding signal (log2 normalized fluorescence) is 0.808. Turning to TGACCGCGTGTA, the binding signal (log2 normalized fluorescence) worked out at 0.802. The same measure for TGAGCCGCCGTA: -0.082. The value for TGACAGAATGTA was 0.243. With CGACCCGGGGTA, the binding signal (log2 normalized fluorescence) is 0.0817. For TGAAGTGGGGTA, the binding signal (log2 normalized fluorescence) was 0.177. In the case of TGAACCTGAGTA, the binding signal (log2 normalized fluorescence) was found to be 0.125.

As for TGATTGCGCGTA, the binding signal (log2 normalized fluorescence) was 0.147.

For TGAATAAATGTA, the binding signal (log2 normalized fluorescence) turned out to be 0.052. Consider TGACGCGAAGTA, for which the binding signal (log2 normalized fluorescence) worked out at 0.131. Regarding TGACCGTTGGTA, the binding signal (log2 normalized fluorescence) was determined as 0.072. On to TGACCATTTGTA, for which the binding signal (log2 normalized fluorescence) came out at 0.0484. Turning to TGACGGCTAGTA, the binding signal (log2 normalized fluorescence) amounted to 0.178. For TGTCACTTGATA, the binding signal (log2 normalized fluorescence) was 0.183. The value for TGAGAGATAGTA was -0.117; that for TGACAGTCCGTA was -0.0613. Regarding TGATAGCGAGTA, the binding signal (log2 normalized fluorescence) is 0.124. For the sequence TGACACGTAGAG, the binding signal (log2 normalized fluorescence) stood at 0.293. For TGATCCCTCGTA, the binding signal (log2 normalized fluorescence) stood at 0.112.

On to TTGAACGTGGTA, for which the binding signal (log2 normalized fluorescence) turned out to be 0.497. For the sequence TGATAGAGGGTA, the binding signal (log2 normalized fluorescence) was -0.0227.

Take TGATAATTGGTA: the binding signal (log2 normalized fluorescence) is -0.103. The same measure for TGACATACAGTA: 0.302. TGAGAAGGTGTA: the binding signal (log2 normalized fluorescence) turned out to be 0.0344. On to TGACTCCGGGTA, for which the binding signal (log2 normalized fluorescence) is 0.105. In the case of TGAGTTAAAGTA, the binding signal (log2 normalized fluorescence) was -0.056.

With TGCAGCGTGGTA, the binding signal (log2 normalized fluorescence) came out at 0.423. Take TGAGCAATTGTA: the binding signal (log2 normalized fluorescence) was -0.0816.

TGAATTGCAGTA: the binding signal (log2 normalized fluorescence) was found to be 0.275. The value for TGACAGGTGGTA was 0.417; that for TGACACGTCCGA was 0.416; that for TGAGAAATAGTA was -0.305. The same measure for TGAGGCGCTGTA: 0.143; for TGAGCTGTCGTA: -0.0563; for TCACCCGTGATA: 0.265. Turning to TGATGTATTGTA, the binding signal (log2 normalized fluorescence) was -0.0146. On to TGAGTTGGCGTA, for which the binding signal (log2 normalized fluorescence) is -0.0561.

Regarding TGAGTCCGTGTA, the binding signal (log2 normalized fluorescence) was determined as 0.118. In the case of TGAACAGAGGTA, the binding signal (log2 normalized fluorescence) was -0.00418. Take TAAAACGTGTTA: the binding signal (log2 normalized fluorescence) is 0.668.

For the sequence TGAACTGGGGTA, the binding signal (log2 normalized fluorescence) stood at 0.29. As for TGAAAGACTGTA, the binding signal (log2 normalized fluorescence) amounted to 0.191. In the case of TGAGATCAGGTA, the binding signal (log2 normalized fluorescence) is 0.0988. The same measure for TGAGGCAAAGTA: 0.142.
